# Test results as given in a compilation of properties of binary mixtures (doi:10.1016/j.jct.2021.106418).
# The densities may have been worked out from excess volumes.
# Assay: xn = mol fraction of the nth substance listed
# Conditions: 100 kPa
smiles,measurement,setting,value
CC(N)C(=O)[O-].CCCC[n+]1ccn(C)c1C + O,mass density,"288.15 K, x1 = 0.811",1091.7 kg/m3
same,mass density,"288.15 K, x1 = 0.8382",1092.1 kg/m3
same,mass density,"288.15 K, x1 = 0.8693",1092.6 kg/m3
same,mass density,"288.15 K, x1 = 0.9381",1093.7 kg/m3
same,mass density,"293.15 K, x1 = 0.811",1088.8 kg/m3
same,mass density,"293.15 K, x1 = 0.8382",1089.2 kg/m3
same,mass density,"293.15 K, x1 = 0.8693",1089.7 kg/m3
same,mass density,"293.15 K, x1 = 0.9381",1090.7 kg/m3
same,mass density,"298.15 K, x1 = 0.811",1085.5 kg/m3
same,mass density,"298.15 K, x1 = 0.8693",1086.4 kg/m3
same,mass density,"298.15 K, x1 = 0.9058",1087 kg/m3
same,mass density,"298.15 K, x1 = 0.9381",1087.5 kg/m3
same,mass density,"298.15 K, x1 = 1",1088.3 kg/m3
same,mass density,"303.15 K, x1 = 0.811",1082.6 kg/m3
same,mass density,"303.15 K, x1 = 0.8382",1083 kg/m3
same,mass density,"303.15 K, x1 = 0.9381",1084.5 kg/m3
same,mass density,"303.15 K, x1 = 1",1085.2 kg/m3
same,mass density,"308.15 K, x1 = 0.811",1079.6 kg/m3
same,mass density,"308.15 K, x1 = 0.8382",1080.1 kg/m3
same,mass density,"308.15 K, x1 = 0.8693",1080.6 kg/m3
same,mass density,"308.15 K, x1 = 1",1082.3 kg/m3
same,mass density,"313.15 K, x1 = 0.811",1076.7 kg/m3
same,mass density,"313.15 K, x1 = 0.8382",1077.1 kg/m3
same,mass density,"313.15 K, x1 = 0.8693",1077.6 kg/m3
same,mass density,"313.15 K, x1 = 0.9058",1078.1 kg/m3
same,mass density,"313.15 K, x1 = 0.9381",1078.7 kg/m3
same,mass density,"313.15 K, x1 = 1",1079.4 kg/m3
same,mass density,"318.15 K, x1 = 0.811",1073.8 kg/m3
same,mass density,"318.15 K, x1 = 0.8382",1074.3 kg/m3
same,mass density,"318.15 K, x1 = 0.8693",1074.8 kg/m3
same,mass density,"318.15 K, x1 = 0.9058",1075.3 kg/m3
same,mass density,"323.15 K, x1 = 0.8382",1071.6 kg/m3
same,mass density,"323.15 K, x1 = 0.8693",1072.1 kg/m3
same,mass density,"323.15 K, x1 = 1",1073.8 kg/m3
same,mass density,"328.15 K, x1 = 0.811",1068.1 kg/m3
same,mass density,"328.15 K, x1 = 0.8382",1068.5 kg/m3
same,mass density,"328.15 K, x1 = 0.9058",1069.5 kg/m3
same,mass density,"328.15 K, x1 = 0.9381",1070.1 kg/m3
same,mass density,"328.15 K, x1 = 1",1070.8 kg/m3
CCCC[n+]1ccn(C)c1C.NCC(=O)[O-] + O,mass density,"288.15 K, x1 = 0.8079",1128.4 kg/m3
same,mass density,"288.15 K, x1 = 0.8325",1128.9 kg/m3
same,mass density,"288.15 K, x1 = 0.874",1129.6 kg/m3
same,mass density,"288.15 K, x1 = 0.9108",1130.3 kg/m3
same,mass density,"288.15 K, x1 = 0.9415",1130.7 kg/m3
same,mass density,"288.15 K, x1 = 1",1131.6 kg/m3
same,mass density,"293.15 K, x1 = 0.8325",1125.7 kg/m3
same,mass density,"293.15 K, x1 = 0.9108",1127.2 kg/m3
same,mass density,"293.15 K, x1 = 0.9415",1127.6 kg/m3
same,mass density,"293.15 K, x1 = 1",1128.5 kg/m3
same,mass density,"298.15 K, x1 = 0.8079",1121.9 kg/m3
same,mass density,"298.15 K, x1 = 0.9415",1124.5 kg/m3
same,mass density,"298.15 K, x1 = 1",1125.4 kg/m3
same,mass density,"303.15 K, x1 = 0.8079",1118.9 kg/m3
same,mass density,"303.15 K, x1 = 0.8325",1119.5 kg/m3
same,mass density,"303.15 K, x1 = 0.9415",1121.3 kg/m3
same,mass density,"303.15 K, x1 = 1",1122.2 kg/m3
same,mass density,"308.15 K, x1 = 0.8079",1115.7 kg/m3
same,mass density,"308.15 K, x1 = 0.8325",1116.2 kg/m3
same,mass density,"308.15 K, x1 = 0.9108",1117.7 kg/m3
same,mass density,"308.15 K, x1 = 0.9415",1118.1 kg/m3
same,mass density,"308.15 K, x1 = 1",1119 kg/m3
same,mass density,"313.15 K, x1 = 0.8079",1112.4 kg/m3
same,mass density,"313.15 K, x1 = 0.8325",1113 kg/m3
same,mass density,"313.15 K, x1 = 0.874",1113.8 kg/m3
same,mass density,"313.15 K, x1 = 0.9108",1114.5 kg/m3
same,mass density,"313.15 K, x1 = 0.9415",1114.9 kg/m3
same,mass density,"313.15 K, x1 = 1",1115.9 kg/m3
same,mass density,"318.15 K, x1 = 0.8079",1109.3 kg/m3
same,mass density,"318.15 K, x1 = 0.8325",1109.7 kg/m3
same,mass density,"318.15 K, x1 = 0.874",1110.6 kg/m3
same,mass density,"318.15 K, x1 = 0.9108",1111.2 kg/m3
same,mass density,"318.15 K, x1 = 0.9415",1111.8 kg/m3
same,mass density,"318.15 K, x1 = 1",1112.6 kg/m3
same,mass density,"323.15 K, x1 = 0.8079",1106 kg/m3
same,mass density,"323.15 K, x1 = 0.8325",1106.6 kg/m3
same,mass density,"323.15 K, x1 = 0.9415",1108.6 kg/m3
same,mass density,"323.15 K, x1 = 1",1109.5 kg/m3
same,mass density,"328.15 K, x1 = 0.8079",1102.8 kg/m3
same,mass density,"328.15 K, x1 = 0.8325",1103.3 kg/m3
same,mass density,"328.15 K, x1 = 0.9108",1104.8 kg/m3
same,mass density,"328.15 K, x1 = 0.9415",1105.5 kg/m3
same,mass density,"328.15 K, x1 = 1",1106.4 kg/m3
